# Measured values taken from the supplement of paper PMC12067230.
# Single values of this set are uncertain.
# Test: amyloid nucleation score relative to library mode (yeast Sup35 reporter selection) (log enrichment difference); higher = more amyloid nucleation; sequences are the first 22 residues of the Bri2 peptide extended by up to 12 random residues
# Details: random library (experiment): 1;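 active = nucleation score significantly above 0 at FDR 0.05; inactive = not significantly above 0 or absent from output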
# 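Further: [psi-pin-] Saccharomyces cerevisiae expressing SupN fusions, induced by 100 µM Cu2SO4, selected 7 d at 30 °C without adenine and uracil, scored by deep sequencing of output versus input.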
row,Sequence,amyloid nucleation score
1,EASNCFAIRHFENKFAVETLICKEVSSAAQDVGA,inactive
2,EASNCFAIRHFENKFAVETLICKFAKGGNPPAAG,inactive
3,EASNCFAIRHFENKFAVETLICKFFDLFVRVAGH,inactive
4,EASNCFAIRHFENKFAVETLICKFGLKLRYIGLV,inactive
5,EASNCFAIRHFENKFAVETLICKFNSVAVIFKD,inactive
6,EASNCFAIRHFENKFAVETLICKFRANLVRGLLG,inactive
7,EASNCFAIRHFENKFAVETLICKFRRWFGLRHVY,inactive
8,EASNCFAIRHFENKFAVETLICKFVCLLVYKCAI,-0.102
9,EASNCFAIRHFENKFAVETLICKGDCASDSRMEA,inactive
10,EASNCFAIRHFENKFAVETLICKGEPRNVGMWCC,inactive
11,EASNCFAIRHFENKFAVETLICKGIGRY,inactive
12,EASNCFAIRHFENKFAVETLICKGLRVMVYGVVA,inactive
13,EASNCFAIRHFENKFAVETLICKGMEQDHWSLWV,inactive
14,EASNCFAIRHFENKFAVETLICKGRLAYGWMLGS,inactive
15,EASNCFAIRHFENKFAVETLICKGRNILSTKTFG,inactive
16,EASNCFAIRHFENKFAVETLICKGRQC,inactive
17,EASNCFAIRHFENKFAVETLICKGRWDLCVGLGR,0.864
18,EASNCFAIRHFENKFAVETLICKGTAGWL,inactive
19,EASNCFAIRHFENKFAVETLICKGYRYAVRVGVI,inactive
20,EASNCFAIRHFENKFAVETLICKHACRDMSFSLS,4.11
21,EASNCFAIRHFENKFAVETLICKHGTHVEKLSAG,-0.826
22,EASNCFAIRHFENKFAVETLICKHIGD,0.498
23,EASNCFAIRHFENKFAVETLICKHRLEGQEDGFK,inactive
24,EASNCFAIRHFENKFAVETLICKIA,6.7

row,Sequence,amyloid nucleation score
1,EASNCFAIRHFENKFAVETLICKIAYRWRARAVG,inactive
2,EASNCFAIRHFENKFAVETLICKIIVLSKVFGVT,inactive
3,EASNCFAIRHFENKFAVETLICKIQSWPGTGICG,inactive
4,EASNCFAIRHFENKFAVETLICKISSDKLASFLL,-0.0194
5,EASNCFAIRHFENKFAVETLICKIVLPCRCMRRY,6.17
6,EASNCFAIRHFENKFAVETLICKIVPCVKGYKWE,inactive
7,EASNCFAIRHFENKFAVETLICKK,inactive
8,EASNCFAIRHFENKFAVETLICKKRRTVRISLRV,inactive
9,EASNCFAIRHFENKFAVETLICKKYYISLVNGAC,inactive
10,EASNCFAIRHFENKFAVETLICKL,5.48
11,EASNCFAIRHFENKFAVETLICKLAHMLWLSSTM,inactive
12,EASNCFAIRHFENKFAVETLICKLCTWRLRVMGS,inactive
13,EASNCFAIRHFENKFAVETLICKLCWAPCIHNRP,inactive
14,EASNCFAIRHFENKFAVETLICKLEDG,inactive
15,EASNCFAIRHFENKFAVETLICKLGCLERHYGTS,5.95
16,EASNCFAIRHFENKFAVETLICKLLCTKYIVVLS,inactive
17,EASNCFAIRHFENKFAVETLICKLMSMCERGTCC,inactive
18,EASNCFAIRHFENKFAVETLICKLQWYGSPWKVR,-0.029
19,EASNCFAIRHFENKFAVETLICKLSKYLNLFESS,1.78
20,EASNCFAIRHFENKFAVETLICKLTWQHEPVLG,inactive
21,EASNCFAIRHFENKFAVETLICKLYESLLICVWR,inactive
22,EASNCFAIRHFENKFAVETLICKM,-0.742
23,EASNCFAIRHFENKFAVETLICKMAHMLAWCVCV,inactive
24,EASNCFAIRHFENKFAVETLICKMAVVP,inactive

# Same assay, conditions: random library (experiment): 2
row,Sequence,amyloid nucleation score
1,EASNCFAIRHFENKFAVETLICKETAKYSLYGCF,inactive
2,EASNCFAIRHFENKFAVETLICKF,inactive
3,EASNCFAIRHFENKFAVETLICKFGFFCSQVPYF,1.43
4,EASNCFAIRHFENKFAVETLICKFGYFVGVYKEQ,2.46
5,EASNCFAIRHFENKFAVETLICKFICEDCDCFSR,6.51
6,EASNCFAIRHFENKFAVETLICKFILKMRMTVVW,inactive
7,EASNCFAIRHFENKFAVETLICKFKGLGSSCVA,inactive
8,EASNCFAIRHFENKFAVETLICKFKSFYYRSCFG,-0.157
9,EASNCFAIRHFENKFAVETLICKFMICDFECFAT,5.41
10,EASNCFAIRHFENKFAVETLICKFNILNSDCPFF,2.43
11,EASNCFAIRHFENKFAVETLICKGITGDGSRLCG,inactive
12,EASNCFAIRHFENKFAVETLICKGKPELLVLGMM,inactive
13,EASNCFAIRHFENKFAVETLICKGVAYHLIGKVY,inactive
14,EASNCFAIRHFENKFAVETLICKGWWRE,inactive
15,EASNCFAIRHFENKFAVETLICKGYLLVDAQVPA,inactive
16,EASNCFAIRHFENKFAVETLICKHFWAMLMKYCT,inactive
17,EASNCFAIRHFENKFAVETLICKHKAFKGSSVGW,inactive
18,EASNCFAIRHFENKFAVETLICKHNVSSMYGPTM,2.39
19,EASNCFAIRHFENKFAVETLICKHYVRCCSSDMF,8.15
20,EASNCFAIRHFENKFAVETLICKICSTGENWKRG,2.61
21,EASNCFAIRHFENKFAVETLICKIE,4.97
22,EASNCFAIRHFENKFAVETLICKIFNSYRFSVG,5.62

row,Sequence,amyloid nucleation score
1,EASNCFAIRHFENKFAVETLICKIRVFNGVVILQ,4.84
2,EASNCFAIRHFENKFAVETLICKIVFLSEMCQVL,inactive
3,EASNCFAIRHFENKFAVETLICKKLFYGIFSRWS,inactive
4,EASNCFAIRHFENKFAVETLICKKLYDC,inactive
5,EASNCFAIRHFENKFAVETLICKKNLSFFYFESV,inactive
6,EASNCFAIRHFENKFAVETLICKLGE,inactive
7,EASNCFAIRHFENKFAVETLICKLKQLLAFIWFF,inactive
8,EASNCFAIRHFENKFAVETLICKLLFLDLWRK,inactive
9,EASNCFAIRHFENKFAVETLICKLLMVRV,inactive
10,EASNCFAIRHFENKFAVETLICKLLVSYVDSAKI,inactive
11,EASNCFAIRHFENKFAVETLICKLMKDRVWMNEL,inactive
12,EASNCFAIRHFENKFAVETLICKLMMDQFSFLWR,inactive
13,EASNCFAIRHFENKFAVETLICKLSAVSFIAMRV,inactive
14,EASNCFAIRHFENKFAVETLICKLSRDDVSRQVK,inactive
15,EASNCFAIRHFENKFAVETLICKLTELRHMDASE,inactive
16,EASNCFAIRHFENKFAVETLICKLTMDKFSFSQT,4.04
17,EASNCFAIRHFENKFAVETLICKLTTKSFVKFDS,inactive
18,EASNCFAIRHFENKFAVETLICKLVTNMATIVMR,-0.223
19,EASNCFAIRHFENKFAVETLICKLVYSSADNLVW,3.71
20,EASNCFAIRHFENKFAVETLICKLYQHDMGHVGT,inactive
21,EASNCFAIRHFENKFAVETLICKMFGRNYLSFRW,inactive

# Same assay, conditions: random library (experiment): 3
row,Sequence,amyloid nucleation score
1,EASNCFAIRHFENKFAVETLICKEYSRSAVGLIK,inactive
2,EASNCFAIRHFENKFAVETLICKFMLSMSVWVIT,inactive
3,EASNCFAIRHFENKFAVETLICKFRNVARWESQA,3.11
4,EASNCFAIRHFENKFAVETLICKGGNDWSPQGSE,inactive
5,EASNCFAIRHFENKFAVETLICKGGTENLLRFIR,0.933
6,EASNCFAIRHFENKFAVETLICKGKIGFRGLCTC,inactive
7,EASNCFAIRHFENKFAVETLICKGQVTSMWCMGR,3.14
8,EASNCFAIRHFENKFAVETLICKGQYKGIGIYNV,inactive
9,EASNCFAIRHFENKFAVETLICKGSDHQCDQTLL,inactive
10,EASNCFAIRHFENKFAVETLICKGTGTKRDLPGQ,inactive
11,EASNCFAIRHFENKFAVETLICKHGMRTRHYVLR,inactive
12,EASNCFAIRHFENKFAVETLICKHPLRPQSLVPA,inactive
13,EASNCFAIRHFENKFAVETLICKHTRWMSCCDTS,inactive
14,EASNCFAIRHFENKFAVETLICKIRALLSPSWAE,inactive
15,EASNCFAIRHFENKFAVETLICKIRN,1.71
16,EASNCFAIRHFENKFAVETLICKISWLRWDCKFR,1.68
17,EASNCFAIRHFENKFAVETLICKKGHDLSLDDTG,0.551
18,EASNCFAIRHFENKFAVETLICKKMFRSRVRCGC,inactive
19,EASNCFAIRHFENKFAVETLICKLCYLSPKKDGR,inactive
20,EASNCFAIRHFENKFAVETLICKLEFSRHISSNL,4.11
21,EASNCFAIRHFENKFAVETLICKLEGQYARFLSF,inactive
22,EASNCFAIRHFENKFAVETLICKLEVMDIGNFLP,3.84
23,EASNCFAIRHFENKFAVETLICKLPIYNESGAMC,inactive
24,EASNCFAIRHFENKFAVETLICKLSGFSTTGFAV,inactive
25,EASNCFAIRHFENKFAVETLICKLVPLGRTDAWD,inactive
26,EASNCFAIRHFENKFAVETLICKMDDGKGAACRL,inactive
27,EASNCFAIRHFENKFAVETLICKMDL,inactive
